Measurements taken from the BET-seq Pho4 binding data (Le et al. 2018).
The list shows a part of the results. These are noisy estimates, calculated here from bound and input reads.

biological target: T1, Pho4 (S. cerevisiae) (UniProt P07270); assay: relative binding free energy (BET-seq); higher = weaker binding; conditions: reference: library average
T1 sequence: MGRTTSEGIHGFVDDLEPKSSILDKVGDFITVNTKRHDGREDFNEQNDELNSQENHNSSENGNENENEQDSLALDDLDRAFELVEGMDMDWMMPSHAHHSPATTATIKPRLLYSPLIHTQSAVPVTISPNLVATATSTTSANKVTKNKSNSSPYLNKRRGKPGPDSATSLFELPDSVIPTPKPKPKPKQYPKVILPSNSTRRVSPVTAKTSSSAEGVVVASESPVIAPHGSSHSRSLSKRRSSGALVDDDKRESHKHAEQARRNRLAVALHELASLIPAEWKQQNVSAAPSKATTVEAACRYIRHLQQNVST

Sequence	relative binding free energy [kcal/mol]
ATTGGCACGTGGGATC	-0.24
CGGGTCACGTGAGTAG	0
GGGTTCACGTGTAGAT	0.44
TTGGACACGTGCGGCT	-0.07
CGGTCCACGTGTTTGT	-0.04
TGTTACACGTGTTTCC	0.16
TGTGGCACGTGGCTCA	-0.07
CTCAACACGTGGGGGT	-0.01
AGGTTCACGTGCGATG	0.13
TCGTGCACGTGGGTAT	-0.07
TTATTCACGTGGGCAG	0.11
CTGTTCACGTGTGGGA	0.16
GTGAGCACGTGCGTGA	-0.23
ATGATCACGTGTGCTT	0.13
GATTGCACGTGGGGCG	0.03
TACGTCACGTGAAAGT	0.31
TCTGTCACGTGTTGCT	0.27
CGTGGCACGTGGCTAG	-0.17
AGAGACACGTGTAGGT	0.13
TGGGTCACGTGGCGCA	-0.07
GGTACCACGTGAGTTG	0.22
AGTTGCACGTGTGTTC	0.05
TAATTCACGTGCGATT	0.16

Sequence	relative binding free energy [kcal/mol]
TTGTACACGTGATTGT	0.25
CGGTCCACGTGGGTTT	-0.06
TCGGCCACGTGGGGTA	-0.27
GTTAACACGTGAGGCG	0.28
AGGTGCACGTGATATT	0
TTAGACACGTGGTGGT	-0.11
TGGGGCACGTGTCGAA	-0.09
TCGAGCACGTGTTATT	-0.02
GTTGACACGTGATTTC	0.33
TTTCGCACGTGCCGGG	-0.04
ATTTACACGTGGGGGC	-0.03
GTTCGCACGTGTGTAA	0.06
ATGTACACGTGCTTGT	-0.14
TAGGGCACGTGCAGGA	-0.23
GGTTTCACGTGTGCCG	0.31
TTTTACACGTGAGTCT	0.33
ATGGGCACGTGGCAGC	-0.2
CGGATCACGTGTATGT	0.24
CCGTGCACGTGGTGGA	-0.07
GGCGGCACGTGTGCGC	0.07
CATATCACGTGTTGGG	0.14
CGTGACACGTGTCGTG	0
CTATGCACGTGTTTTA	-0.08

Sequence	relative binding free energy [kcal/mol]
TTCGTCACGTGTGGTC	0.11
GTGGGCACGTGGTTGC	-0.09
AGGGTCACGTGTAAGT	0.05
CAGGGCACGTGGTAGC	-0.23
GTCAACACGTGGTATT	0.19
TAATTCACGTGAATTA	0.36
TGTGTCACGTGGTCCG	0.09
CGGAACACGTGTTAGT	0.23
GATGTCACGTGTTCAG	0.2
GTTTGCACGTGTTCTG	0.11
TGTATCACGTGAAATG	0.33
TTCGGCACGTGGGCGA	-0.18
CGAGACACGTGTGTTT	0.19
AGAGGCACGTGGTTCG	-0.34
GCGGTCACGTGTGATG	0.09
CGGGTCACGTGGAGGG	0.11
AGGATCACGTGTCGGC	0.23
GACTGCACGTGGGGCT	-0.05
GATGTCACGTGAAATG	0.28
TGATGCACGTGATGTA	-0.02
GGATGCACGTGGAAGA	0.21
ATATGCACGTGTATGA	-0.11
GGGAACACGTGTCATT	0.26

Sequence	relative binding free energy [kcal/mol]
TATGTCACGTGTGATT	0.15
AGTAGCACGTGAGGGT	0.2
GGTAACACGTGTAGTG	0.15
AGAAACACGTGATGTG	0.2
GTGTGCACGTGTAACG	0.04
GGAGGCACGTGGGAAA	-0.12
TGGGGCACGTGTTTTA	-0.01
TAAAACACGTGGTTGG	-0.1
ATTTGCACGTGAGTGT	0.2
TTTATCACGTGAAGTT	0.23
GAGATCACGTGGGTGA	0.2
TTAGTCACGTGCTTTG	-0.03
AGTTTCACGTGGTCGC	0.25
AATTTCACGTGGACTT	0.25
ATAGCCACGTGGTGGT	-0.31
TTGAGCACGTGGCGTA	-0.32
GGTTACACGTGTGCAG	0.13
TCGGTCACGTGTGAGA	0.06
ATTGCCACGTGGGATT	-0.02
TATTTCACGTGTTATA	0.2
TGGAGCACGTGAGCAT	0.14
TTATCCACGTGTGGTT	-0.05
TAAGGCACGTGTTTAA	-0.08

Sequence	relative binding free energy [kcal/mol]
GTGTGCACGTGGGGAT	-0.13
GGTGTCACGTGATTTT	0.25
TCGGTCACGTGATTGA	0.38
AGGCACACGTGGAGTT	0.18
ATTCTCACGTGGAGGT	0.22
CAGTTCACGTGGTGAG	0.16
AATAGCACGTGATTGT	0.05
ATTTGCACGTGGGTGC	-0.25
TTGTACACGTGTAAGT	0.25
GGTTTCACGTGGCACG	0.1
ACCGGCACGTGGTTGT	-0.16
ATTGCCACGTGGCTTG	-0.11
TCTGTCACGTGGAGAT	0.09
TGGGCCACGTGCATGG	-0.24
GTGGACACGTGGAAGT	0.18
GGTGGCACGTGAGAAT	0.16
TGTCGCACGTGTATGG	-0.1
TAATGCACGTGAAGCG	0.35
AGGCTCACGTGGCTGG	0.23
TTCTGCACGTGGGGGT	-0.07
ATGTACACGTGATGTG	0.33
TCCGTCACGTGGGGGA	0.01
TCAGTCACGTGGGTTA	0.1
